Laboratory results as given in PubChem BioAssay AID1745845 (National Center for Advancing Translational Sciences (NCATS), 2022).
Several values for one entry are separate records, joined by “and”; a condition that tells them apart may be missing. Equal entries are not always repeated. About 2,600 (0.72%) of roughly 360,000 compounds were called active. Inconclusive means that the source gave no clear call. Such entries were picked first, then a sample of the others. Calls come from the whole dose curve; as a rule, active = well fitted inhibition curve with a large enough effect; inconclusive = small, poorly fitted or top-dose-only effect; inactive = no such curve, though single readings can be large or run the other way. A potency beside an inconclusive call is a rough fit, not a confirmed value.

Test: Primary qHTS for Inhibitors of ATXN expression; note: nearly all actives have a fitted effect of over 55% in size
Details: HEK-293 ATXN2-luciferase reporter, luminescence, 24 h; activity change, negative = inhibition: at 57 µM (top of the series)
Method in brief: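 qHTS (up to 57 uM final) was run with 24 h compound exposure of reporter cells at 37 °C. Each well was multiplexed: SteadyGlo luminescence measured ATXN2-luciferase expression after a fluorogenic Gly-Phe-AFC viability readout (25 uM final).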
% is set by controls: 0 for no effect and ±100 for the full control effect; potency is the fitted concentration of half-maximal effect; tags give direction and shape of the fitted curve.

Compound	Potency	activity change, negative = inhibition
CCSc1ccc(-c2cc(NC=O)c3ncc(-c4cccc(C(=O)NCCN(C)C)c4)n3c2)cc1	inconclusive: 22.4 µM [inhibitor, partial curve, poor fit]	
CCNC(=O)c1noc(-c2cc(C(C)C)c(O)cc2O)c1-c1ccc(CN2CCOCC2)cc1	inconclusive: 0.122 µM [inhibitor, full curve, poor fit]	
c1cncc(-c2nnc(-c3cccnc3)nn2)c1	inconclusive: 35.5 µM [inhibitor, single point]	
COc1ccc(-c2nn(-c3ccccc3)cc2C=O)cc1[N+](=O)[O-]	inactive	
Cc1ccc(-c2ncn(-c3ccc(Nc4nccc(-c5cccc(N6CCOCC6)c5)n4)cc3)n2)cn1	active: 4.85 µM	
CCOc1ccc2[nH]c(=O)c(CN(Cc3cccs3)Cc3nnnn3C(C)(C)C)cc2c1	inconclusive: 8.91 µM [inhibitor, partial curve, poor fit]	
CC(=O)n1cc(N(C(=O)CCl)c2ccc([N+](=O)[O-])cc2)c2ccccc21	inconclusive: 28.2 µM [inhibitor, single point]	
Cc1cc(C(=O)N/N=C/c2cccc(OC(=O)c3cccc(Br)c3)c2)n[nH]1	inactive	
COc1ccc(-c2n[nH]c(C)c2-c2ccc(Cl)cc2)c(O)c1OC	inactive	
CCc1nnc(NC(=O)c2ccc(N(C)S(=O)(=O)c3ccccc3)cc2)s1	inconclusive: 35.5 µM [inhibitor, partial curve, poor fit]	
CNCc1ccc(-c2[nH]c3cc(F)cc4c3c2CCNC4=O)cc1	inconclusive: 21.7 µM [inhibitor, partial curve]	
O=C(Nc1ccc(Oc2ccccc2)cc1)c1ccc2sc([C@H]3C[C@H](O)[C@@H](CO)O3)nc2c1	inconclusive: 25.1 µM [inhibitor, partial curve]	
CCOc1ccc(-c2ccc(/C=C3/C(=N)N4C=CSC4=NC3=O)o2)c([N+](=O)[O-])c1	active: 25.1 µM	
Cc1nc2ccccc2c(=O)n1/N=C/c1ccccc1O	inconclusive: 39.8 µM [inhibitor, single point]	
COc1ccc(NC(=O)N(C)C[C@H]2Oc3c(NC(=O)c4nc5ccccc5s4)cccc3C(=O)N([C@@H](C)CO)C[C@H]2C)cc1	inconclusive: 39.8 µM [inhibitor, single point]	
C#CCOCCOCCOCCNc1nc(N2CCN(C(=O)CCCCCCCCCCNC(=O)Cn3cc(C[C@@H](C)O)nn3)CC2)nc(N2CCN(C(=O)CCCCCCCCCCNC(=O)[C@H](CCCN=C(N)N)n3cc(C[C@@H](C)CC)nn3)CC2)n1	inconclusive: 20 µM [inhibitor, single point]	
COc1ccc(C(=O)/C=C/c2cc(OC)c(O)c(OC)c2)c(F)c1	inconclusive: 39.8 µM [inhibitor, single point]	
Cc1ccccc1C(=O)c1cccn1CC(=O)NCCN1CCN(c2cccc(C)c2C)CC1	inconclusive: 28.2 µM [inhibitor, single point]	
NC1=NC(=Nc2cccc(S(=O)(=O)N3CCOCC3)c2)c2ccccc21	inactive	
CCOc1cc(/C=C2/NC(=S)NC2=O)ccc1OCc1ccc([N+](=O)[O-])cc1	inconclusive: 2.82 µM [inhibitor, full curve, poor fit]	

Compound	Potency	activity change, negative = inhibition
CCS(=O)(=O)c1ccc2oc(SCC(=O)NC34CC5CC(CC(C5)C3)C4)nc2c1	inactive	
O=C(NCC1CCCO1)c1cc2c([nH]c3ccccc32)c(-c2ccc(F)cc2)n1 (stereo not given)	inconclusive: 20 µM [inhibitor, partial curve]	
O=C(NCC(c1cccs1)N1CCOCC1)c1cc(-c2ccc(F)cc2)nc2ccccc12 (stereo not given)	inactive	
COc1cc(-c2nc3cnccn3c2Nc2ccc(C(C)C)cc2)ccc1O	inconclusive: 28.2 µM [inhibitor, single point]	
CC(C)CC1C(=O)N(Cc2cn(CCC3OCCCO3)nn2)CCS(=O)(=O)N1Cc1ccc(-c2ccc(Cl)c(Cl)c2)cc1 (stereo not given)	inconclusive: 35.5 µM [inhibitor, single point]	
O=C(CSc1nnc(-c2ccncc2)o1)c1cccc([N+](=O)[O-])c1	inconclusive: 37.7 µM [inhibitor, partial curve, poor fit]	
COc1ccc(CNC(=O)c2ccc(-c3c(C)noc3C)c3ccoc23)cc1OC	inactive	
CCC[C@H]1NC(=O)[C@H](C)N(C)C(=O)C(C)(C)C(=O)C(C)NC(=O)[C@H](Cc2ccc(OC)cc2)N(C)C(=O)[C@H](C(C)C)N(C)C(=O)CNC(=O)[C@H](CC(C)C)N(C)C(=O)CNC(=O)[C@H]([C@@H](C)CC)OC(=O)[C@H]1C (stereo not given in full)	inconclusive: 0.562 µM [inhibitor, full curve]	
COc1cc(Br)cc(/C=N/NC(=O)Cc2ccc(C(F)(F)F)cc2[N+](=O)[O-])c1O	inconclusive: 33.6 µM [inhibitor, partial curve, poor fit]	
O=C(Nc1ccc(Br)cc1)C1CCCN(S(=O)(=O)c2cccnc2)C1 (stereo not given)	inconclusive: 5.97 µM [inhibitor, partial curve, poor fit]	
CC(=O)c1c(C)oc2ccc(N(C(=O)c3ccncc3)S(=O)(=O)c3ccc(F)cc3C)cc12	inconclusive: 15.8 µM [inhibitor, partial curve]	
O=C(N/N=C/c1cn(-c2cccs2)nc1-c1ccccc1)c1ccccc1Cl	inactive	
O=C(CNC(=O)c1ccccc1)N/N=C/c1ccc([N+](=O)[O-])s1	inconclusive: 0.0084 µM [inhibitor, full curve, poor fit]	
CC(C)(C)c1ccc(S(=O)(=O)N2CCC(c3ccncc3)CC2)cc1	inconclusive: 20 µM [inhibitor, partial curve, poor fit]	
Cc1cc(O)c(C)c(O)c1/C=N/NC(=O)c1cccnc1	active: 11.2 µM	
O=[N+]([O-])c1ccc(NC(=S)NCCc2ccc(F)cc2)cc1	inconclusive: 31.6 µM [inhibitor, single point]	
COc1cc(S(=O)(=O)Nc2ccc3nc(C)sc3c2)ccc1NC(C)=O	inconclusive: 1.34 µM [inhibitor, partial curve, poor fit]	
Nc1nc(F)nc2c1ncn2[C@@H]1O[C@H](COP(=O)(O)O)[C@@H](O)[C@H]1O	inconclusive: 24.3 µM [inhibitor, single point]	
CCCCCCCCN1C(=O)[C@H](CC(=O)N2CCCC2)C[C@@]2(C(=O)OCC)CCCC=C12	inconclusive: 25.1 µM [inhibitor, single point]	
C=C(C)CNC(=S)N/N=C(\C)c1ccc(-n2ccnc2)cc1	inactive	

Compound	Potency	activity change, negative = inhibition
CC1=CC(C)C(C[N+]2(C)CCCCC2)C(C)C1 (stereo not given)	inactive	
COc1ccc(C)cc1S(=O)(=O)N1CCCC(C(=O)N2CCN(c3ccccc3F)CC2)C1 (stereo not given)	inconclusive: 12.6 µM [inhibitor, partial curve, poor fit]	
CCN(CCNC(=O)C1CCCN(Cc2nc(-c3ccc(OC)cc3)oc2C)C1)c1ccccc1 (stereo not given)	inconclusive: 20 µM [inhibitor, partial curve]	
CC(C)n1cc(/C=C/c2cc[n+](C)cc2)c2ccccc21	inconclusive: 15.8 µM [inhibitor, partial curve]	
NC(Cc1ccc(Cl)cc1)c1csc(NC(=O)NCC2CCCCC2)n1 (stereo not given)	inconclusive: 39.8 µM [inhibitor, single point]	
Cc1ccc(OCCCC(=O)N(C)CC(=O)Nc2ccccc2Br)cc1	inconclusive: 3.16 µM [inhibitor, partial curve, poor fit]	
CCC/C=C/c1ccc(CN2C(C(C)C)C(=O)N(Cc3cn(Cc4ccco4)nn3)CCS2(=O)=O)cc1 (stereo not given)	inconclusive: 39.8 µM [inhibitor, single point]	
Cc1ccc(Cl)cc1N1CCN(C(=O)C(C)n2ncn3cccc3c2=O)CC1 (stereo not given)	inactive and inconclusive: 23.8 µM [inhibitor, partial curve, poor fit]	
CCCC1C2CN(C(C)C)CC=C2C(C#N)=C(N)C1(C#N)C#N (stereo not given)	inactive	
CCOC(=O)C1(Nc2nccs2)Sc2ccccc2NC1=O (stereo not given)	inactive	
O=C(CNC(=O)c1ccccc1)N/N=C/c1cc(Br)ccc1O	active: 28.2 µM	
Cc1cccc(NC(=O)CSc2nc3ccccc3c3nc(CCn4cncc4C)nn23)c1	inconclusive: 28.2 µM [inhibitor, single point]	
O=c1cc2nc(-c3ccccc3)nc(SCc3cccc(Br)c3)n2[nH]1	inconclusive: 39.8 µM [inhibitor, single point]	
CCCCCCCCCC[n+]1cccc2c3ccccc3ccc21	active: 0.67 µM	
CC(C)n1ncc2c(C(=O)Nc3cccc(C#N)c3)cc(C3CC3)nc21	inconclusive: 28.2 µM [inhibitor, single point]	
O=C1C=C(C2OC(CO)C(O)C2O)C(=O)N1 (stereo not given)	inconclusive: 39.8 µM [inhibitor, single point]	
CC(C)C[C@@H]1NC(=O)[C@H](Cc2ccccc2)N(C)C(=O)[C@H](C)NC(=O)c2ccccc2NC(=O)[C@H](Cc2ccc(O)cc2)N(C)C1=O	inconclusive: 17.8 µM [inhibitor, partial curve, poor fit]	
O=C(Nc1ccc(F)cc1)C1CC(=O)n2cnnc2N1 (stereo not given)		inactive: -7.79% [at 2.22 µM]
COc1ccc(NS(=O)(=O)c2ccc(C(=O)N3CCCCCC3)cc2)cc1	inconclusive: 0.794 µM [inhibitor, full curve, poor fit]	
O=C(N/N=C\c1cccnc1)c1cc(-c2ccccc2)nc2c(Cl)cccc12	inconclusive: 39.8 µM [inhibitor, single point]	
